According to the RNAGym collection of RNA variant scans (doi:10.1073/pnas.2313332121):
Variants at the background level are over-represented here.

B1: TPR 5TU (parent)
chain: GGAUCUUCUCGAUCUAACAAAAAAGACAAAUCUGCCACAAAGCUUGAGAGCAUCUUCGGAUGCAGAGGCGGCAGCCUUCGGUGGCGCGAUAGCGCCAACGUUCUCAACUAUGACACGCAAAACGCGUGCUCCGUUGAAUGGAGUUUAUCAUG

Variants of: B1
Experiment: polymerase ribozyme fitness, log enrichment relative to wild type (log ratio); higher = more active; in vitro selection for triplet polymerase activity
Summary of the method: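 Streptavidin-bead capture of gel-excised extended constructs, followed by RT-PCR, closed a single triplicate in vitro selection round. That round began by annealing PCR-built, transcribed mutant libraries of each subunit of a heterodimeric triplet polymerase ribozyme with a biotinylated primer, the partner subunit and triplets, then incubating them frozen at −7 °C. After Illumina sequencing of inputs and outputs, genotypes needed ≥10 input reads and ≥1 read per output. Fitness is the base-2 logarithm of genotype enrichment over wild-type enrichment, using inverse-variance-weighted replicate averages.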

Variant	polymerase ribozyme fitness (log ratio)
GGAUCUUCUCGAUCUAACAAAAAAGACAAAUCUGCCACAAAGCGUGAGAGCAACUUCGGAUGCAGAGGCGGCAGCCUUCGGUGGCGCGAUAGCCCCAACGUUCUCAAAUAUGACACGCAAAACGCGUGCUCCGUUGAAUGGAGUUUAUCAUG [U44G U53A G94C C108A]	≤ -4.2
GGAUCUUCUCGAUCUAACAAAAAAGACAAAUCUGCCACAAAGCGUGAGAGUAUCUUCGGAUGCAGAGGCGGCGGCCUUCGGUGGCACGCUAGCGCUAACGUUCUCGACUAUGACACGCAAAACGCGUGCUCCGUUGAAUGGAGUUUAUCAUG [U44G C51U A73G G86A A89C C96U A106G]	≤ -4.2
GGAUCUUCUCGAUCUAACAAAAAAGACAAAUCUGCCACAAAGCGUGAGAGCAUCUUCGGAUGCAGCGGCGGCAGCCUUCGAUGGUGCGAUAGCGCCAACGUUCUCAACUAUGACACGCAAAACGCGUGCUCCGUUGAAUGGAGUUUAGCAUG [U44G A66C G81A C85U U148G]	≤ -4.2
GGAUCUUCUCGAUCUAACAAAAAAGACAAAUCUGCCACAAAGCGUGAGAGCAUCUUCGGAUGCAGAGGCGGCAGGCUUCGGUGGCGCGAUAGCGCCAACGUUAUCAACUAUGACACGCAAAACGCGUGCUCCGUUGAAUGGAGUUUAACAUG [U44G C75G C103A U148A]	≤ -4.2
GGAUCUUCUCGAUCUAACAAAAAAGACAAAUCUGCCACAAAGCGUGAGAGCAUCUUCGGAUGCAGAGGCGGCAGCCUUCGGUGUCGCGAUAGCGCCAACGUUCUCAACUAUGAGACGAAAAACGCGUGCUCCGGUGAAUGGAGUUUAUCAUG [U44G G84U C114G C118A U134G]	≤ -4.2
GGAUCUUCUCGAUCUAACAAAAAAGACAAAUCUGCCACAAAGCCUGAGAGCAUCUUCGGAUGCAGAGGCGGCAGCCUUCGGUGGCGCGAUAGCGCCAACGUUCUCAACUAUGACACGCAAAACGCGUGCUCCGUGGAAUGGAGUUUAGCAUG [U44C U135G U148G]	≤ -4.2
GGAUCUUCUCGAUCUAACAAAAAAGACAAAUCUGCCACAAAGCGUGAGAGCAUCUUCGGAUGCAGAGGCGGCAGCCUUAGGUGGCGGGAUAGCGCCAACGUUCUCAACUAUGACACGCAAAACGCGUGCUCCGUUGAAUGGAGUUUAUCAUG [U44G C79A C87G]	≤ -4.2
GGAUCUUCUCGAUCUAACAAAAAAGACAAAUCUGCCACAAAGCCUGAGAACAUCUUCGGAUGCAGAGGCGGCAGCCUUCGGUGGCGCGAUAGCGGCAACGUUCUCAGCUAUGACACGCAAAACGCGUGCUCCGUCGAAUGGAGUUUAUCAUG [U44C G50A C95G A107G U135C]	≤ -4.2
GGAUCUUCUCGAUCUAACAAAAAAGACAAAUCUGCCACAAAGCGUGAGAGCAUCUUCGGAUGCAGAGCCGGCAGCCUUCGGUGGCGCGAGAGCGCCAACGUUCUCAACUAUGACACGCAAAACGCGUGCUCCGUUGAAUGGUGUUUAUCAUG [U44G G68C U90G A142U]	≤ -4.2
GGAUCUUCUCGAUCUAACAAAAAAGACAAAUCUGCCACAAAGCCUGAGAGCAUCGACGGAUGGAAGGGCGGCAGCCUUCGGUGGCGCUAUAGCGCCAACGUUCUCAACUAUGACACGCAAAACGCGUGCUCCGUAGAAUGGAGUUUAUCAUG [U44C U55G U56A C63G G65A A66G G88U U135A]	≤ -4.2
GGAUCUUCUCGAUCUAACAAAAAAGACAAAUCUGCCACAAAGCGUGAGAGCAUCUUCGGAUGCAGAGGCGGCAGCCUUCGCUGGCGCGAUAGCGCUAACGUUCUCAAGUAUGACACGCAAAACGCGUGCUCCGUUGAAUGGAGUUUAUCAUG [U44G G81C C96U C108G]	≤ -4.2
GGAUCUUCUCGAUCUAACAAAAAAGACAAAUCUGCCACAAAGCGUGAGAGCAUCUUCGGAUGCAGAGGCGGCAGCCUUCGAUGGCGAGAUAGCGCCAACGUUCUCAACUAUGACACGCAAAACCCGUGCUCCGUUGAAUGGAGUUUAUCAUG [U44G G81A C87A G124C]	≤ -4.2
GGAUCUUCUCGAUCUAACAAAAAAGACAAAUCUGCCACAAAGCGUGAGAGCAUCUUCGGAUGCAGAGGCCGCAGCCUUCGGUGGCGCGAUAGCGCCAACGUUCUCAACUAUGACACGCAAAACGCGUGCUCCGUUGAAUUGAGUUUAUCAUG [U44G G70C G140U]	≤ -4.2
GGAUCUUCUCGAUCUAACAAAAAAGACAAAUCUGCCACAAAGCGUGAGAGCCUCUUCGGAUGCAGAGGCGCCAGCCGGCGGUGGCGCGAUAGCGCCAACGUUCUCAACUAUGACACGCAAAACGCGUGCUCCGUUGAAUGGAGUUUAUCAUG [U44G A52C G71C U77G U78G]	≤ -4.2
GGAUCUUCUCGAUCUAACAAAAAAGACAAAUCUGCCACAAAGCGUGAAAGCAUCUUCGGAUGCAGAGGCGGCUGCCUUCGGUGGCUCGAUAGCGCCAAAGUUCUCAAGUUUGACACGCAAAACGCGUGCGCCGUUGAAUGGAGUUUAUCAUG [U44G G48A A73U G86U C99A C108G A110U U130G]	≤ -4.2
GGAUCUUCUCGAUCUAACAAAAAAGACAAAUCUGCCACAAAGCGUGAGAGCAUCUUCGGAUGCAGAGGCGGCAGCCUUCGGUGGCGCGAUAGCGCAAACGUUCUCAACUAUGACACGCAAAACGCGUGCUCCGUUAAAUGGAGUGUAUCAUG [U44G C96A G136A U145G]	≤ -4.2
GGAUCUUCUCGAUCUAACAAAAAAGACAAAUCUGCCACAAAGCGUGAGAGCAUCUUCGGAUGCAGAGGCGGCAGCCUUCGCUGGCGCGUUAGCGCCAACGUUCUCAACUAUGACACGCUAAACGCGUGCUCCGUUGAAUGGAGUUUAUCAUG [U44G G81C A89U A119U]	≤ -4.2
GGAUCUUCUCGAUCUAACAAAAAAGACAAAUCUGCCACAAAGCCUGAGAGCAUCUUCGGAUGCAGAGGCGGCAGCCUUCGGUGGCGCAAUAGCGCCAACGUUCUCAACUAUGACACGCAAAACGCGUGCUCCGUAGAAGGGAGUUUAUCAUG [U44C G88A U135A U139G]	≤ -4.2
GGAUCUUCUCGAUCUAACAAAAAAGACAAAUCUGCCACAAAGCCUGAGAGCAUCAUCGAAUGCAGAGGCGGCAGCCUUCGGUAGCGUGAUAGCGCCAACGUUCUCAACUAUGACACGCAAAACGCGUGCUCCGUUGAAUGGAGUAUAUCAUG [U44C U55A G59A G83A C87U U145A]	≤ -4.2
